Test results reported in the supplement of paper PMC11417369.
± gives the standard deviation of the averaged measurements. The list shows a part of the results.

system: PfAP2-EXP AP2 domain (GST-tagged); assay: gcPBM binding intensity (ln(normalized median fluorescence intensity)); higher = stronger DNA binding
Summary of the method: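 Each value is the highest Masliner-normalised natural-log median intensity across replicate spots of either orientation of a probe. The probes were primer-extended double-stranded 36-bp intergenic genomic sequences on an Agilent 4 × 180k array, alongside negative controls, exposed for 1 h to GST-tagged P. falciparum DNA-binding domains expressed in E. coli. Bound protein was picked up with Alexa488 anti-GST antibody and scanned at 488 nm.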

| Sequence | gcPBM binding intensity (ln) |
| --- | --- |
| ATGTGTATATGTTAATGTACAAATTTTGAAAATGCC [XGTACX_site2685] | 8.97 ± 0.32 |
| TGTATAACCATAAATTGTACAGAAAAAAGTATAAAA [XGTACX_site1493] | 8.79 ± 0.4 |
| TATATATGCATTAAAGTGTTTTTTTTTTTTTTTTTT [CACACA_negctrl_site1353] | 8.79 ± 0.2 |
| ATTTTTTTTTTTTATGGTACACACACGCGTATGGTT [XGTACX_site3888] | 8.63 ± 0.44 |
| TTTCAACTTTTGTCATGTACACATAATTTTATTGCA [XGTACX_site6701] | 8.89 ± 0.44 |
| ATTTATTTATCAAATATTATCTTAAAAAAAAAAGAA [CACACA_negctrl_site1345] | 8.21 ± 0.46 |
| ATATTAAATATATACAGTACACATTACAATACAATA [XGTACX_site3221] | 8.64 ± 0.24 |
| CTTTGTAGTTGGTCCACACACATATCTGGAAGAATA [CACACA_site4834] | 8.54 ± 0.39 |
| TTTCTTAAACCGTACAGTACACACCTTTATAATGTT [XGTACX_site434] | 8.76 ± 0.32 |
| TATTTTCCATGAGGTAGTACACATTAAAAAATCGTT [XGTACX_site6887] | 8.44 ± 0.29 |
| TAAGCGTTTTTTAAAACACACATAAGAACTAAATGA [CACACA_site1670] | 8.63 ± 0.47 |
| AAGGTTTTGGGTTTTAATTAATTTAATATGATTATA [XGTACX_negctrl_site147] | 8.46 ± 0.59 |
| TTACACCTTAGGATCTGTACAAATATATGACAAATC [XGTACX_site4333] | 8.47 ± 0.53 |
| TAATATTAAAAAGAGACACACAAAAATATTAAAAAA [CACACA_site3120] | 8.72 ± 0.58 |
| CGACTTTTAAAATATACACACATATAAATAAATATA [CACACA_site6523] | 8.35 ± 0.46 |
| TTACAATATAATAAATGTACATATAACAAATATATA [XGTACX_site2199] | 8.77 ± 0.47 |
| TTTTTTTTTTTTTGTAGTACATACTATTTTATTAAT [XGTACX_site950] | 8.39 ± 0.57 |
| TAGATGTATTTTTAAAGTACTTTTTAATATATAATC [XGTACX_site1431] | 8.3 ± 0.17 |
| AGAATTATATACACAAGTACATAATGACATATATAT [XGTACX_site5617] | 8.42 ± 0.35 |
| TAAAAAATTATATTCACACACATACACATATATATA [CACACA_site545] | 8.54 ± 0.43 |
| AAAATATGTTAATATTGTACTTAAATAAAAAAAATA [XGTACX_site7152] | 8.37 ± 0.28 |
| ATTCTTAAAATAAAATGTACGAAAAAAAAAAAAAAA [XGTACX_site1657] | 8.28 ± 0.52 |

| Sequence | gcPBM binding intensity (ln) |
| --- | --- |
| TATATATATATAAACGCATGTAATTTATACACACAT [TGCATGCA_site946] | 9.91 ± 0.33 |
| ATCTTTCCTTTTGCATGTACATATGGAAATACTTTT [XGTACX_site6995] | 9.17 ± 0.18 |
| ATAATTAAGTTATGTGTGCACTGTTAAAAATAAATG | 9.35 ± 0.19 |
| ATACACATAACATATATATATATATATATATATATC [CACACA_negctrl_site278] | 8.915 ± 0.021 |
| TTTTATGATATTTACACACAAACGTGAGATAGCTCA [CACACA_site2311] | 8.33 ± 0.41 |
| AATATAATATCTATAATATAAAAAAAACAAAAAAAA [CACACA_negctrl_site875] | 8.36 ± 0.53 |
| TTTTTTATTTTTTACATATTTAGCTCATATTTATAT [GTGCAC_negctrl_site491] | 8.57 ± 0.3 |
| TAAAAGGATACATATACACACATATATATATATATA [CACACA_site2791] | 10.2 ± 0.42 |
| ATATTTTTATATAATGAACACACATATTATATCATT [CACACA_site8446] | 8.34 ± 0.43 |
| TTCTTCAACAAAAAAATAAAAATAAAATAATAAAAA [GTGCAC_negctrl_site619] | 8.4 ± 0.39 |
| ATAAATCGATAAAATATATGCTACATGAATAAATAA [XGTACX_negctrl_site604] | 8.49 ± 0.42 |
| TTTAAAAAATTATATTCACACACATACACATATATA [CACACA_site8076] | 8.51 ± 0.59 |
| TAACTATTATAAAAATGTACAAATGAAAATATTTTT [XGTACX_site1438] | 8.63 ± 0.47 |
| CTTTATTATAAGATTACACACATGTCTTATAATTTA [CACACA_site5715] | 8.54 ± 0.47 |
| TAAAAGTTTTTATACATACACACCTATAAATTAAGT [CACACA_site2446] | 8.49 ± 0.4 |
| AAAATAAAAATAAAAGCACACATAAATATATATATA [CACACA_site8409] | 9.64 ± 0.28 |
| TACCAAAAAAAAAAAAATAAAAATAAAAAAAAAAAT [CACACA_negctrl_site1714] | 8.18 ± 0.54 |
| TTCCTGTTAATTACAACACACAATTTTTATTTTATG [CACACA_site779] | 8.81 ± 0.42 |
| TAATTAAATACATTAACACACACACTAATATATACA [CACACA_site8938] | 8.69 ± 0.52 |
| AAGGCATGACTATCTGCACACATAAAAATAAGAAAT [CACACA_site8180] | 8.85 ± 0.49 |
| TAAACATAATAATATACACACATATATTGATATATA [CACACA_site2144] | 8.18 ± 0.43 |
| TAAAAAAAAATATAATGTACGTATAAATATATATTA [XGTACX_site5085] | 8.61 ± 0.35 |

| Sequence | gcPBM binding intensity (ln) |
| --- | --- |
| AATTTTTTTTTTTTGTGTCCTCATAATTCTTCATTC [XGTACX_site5042] | 8.62 ± 0.39 |
| TATATTTATTTAAAAACATGCATTTTTTTTTTCCGT [TGCATGCA_site44] | 9.38 ± 0.27 |
| TTTTTTTTTTTTACATGTACTTATTTTAAATATAAA [XGTACX_site805] | 8.86 ± 0.37 |
| AAAATTAAAACCTACACACACATTTAAAAAAAAAAA [CACACA_site3068] | 8.41 ± 0.5 |
| ATTTTTTTGGTAATTTGTACATAATATATACATAAT [XGTACX_site3742] | 8.8 ± 0.38 |
| ATATATTTATAGACTTGTACATATATATACGATATA [XGTACX_site8890] | 8.41 ± 0.3 |
| TATATTATAGGTTGTGTACACATATTATATAGTACT [CACACA_site4583] | 8.68 ± 0.15 |
| TTTTTTTTTTTTTTTTGTACTTATAAAATAACATGT [XGTACX_site134] | 8 ± 0.071 |
| TAATACTTAGAGAAAAGTACGTATGAACTTATGTAA [XGTACX_site5504] | 8.42 ± 0.4 |
| TTTTGTTTAGTGTATTGTACAATATATCTTTATTTT [XGTACX_site5163] | 8.78 ± 0.42 |
| AGTCCTTACACATATATTAAATATGTGTATATATAT [XGTACX_negctrl_site336] | 8.78 ± 0.099 |
| AAAAAAAAAAAAAAAAGTACATATATATATATAATT [XGTACX_site4437] | 8.53 ± 0.19 |
| TATTAATACGGACACACACACACACTAGATAAAATA [CACACA_site4295] | 8.89 ± 0.38 |
| AAACATTTATGAAGGTGTACAAAAATGAATTAAAAA [XGTACX_site7035] | 8.8 ± 0.41 |
| TATTTAAATACTGACGCATGCATAAGGAGTAATAGT [TGCATGCA_site465] | 9.98 ± 0.47 |
| ATATTGAAAATTTGAAGTACATCTAAATATATTATT [XGTACX_site7817] | 8.38 ± 0.25 |
| TTTATAATAAAAAATACATGCAGTTATATATAATAA [TGCATGCA_site654] | 9.14 ± 0.23 |
| ATAATGTGTTTGGTATTCTTGATAGATAGTTTTGTG [CACACA_negctrl_site68] | 8.47 ± 0.46 |
| TATATATAAATAAACACACACAAATATAATAAAAAA [CACACA_site3526] | 8.85 ± 0.28 |
| ATCCGTGTCTGAAATACACACATGACAATGTGAATG [CACACA_site6556] | 8.39 ± 0.37 |
| TATTTTACATAAAAGAAAAAAAAAAAAAAAAAAAAA [CACACA_negctrl_site1460] | 7.87 ± 0.49 |
| TATAAAAAAATAATAAAATAATAAAATATATAAATA [TGCATGCA_negctrl_site394] | 8.27 ± 0.28 |

| Sequence | gcPBM binding intensity (ln) |
| --- | --- |
| ATTCTATTATCCTTTGCACACAAAATAAATGAAAAA [CACACA_site3030] | 8.79 ± 0.15 |
| TTTTAAAAGGTAAAATGTACATATATAATATATACA [XGTACX_site1222] | 8.59 ± 0.53 |
| TATATATTATATATTTGTACATATATATAAAAACTT [XGTACX_site449] | 8.34 ± 0.25 |
| CCTTCCTTGAATTTTACATGCAAAAAATTATAAAAC [TGCATGCA_site663] | 9.06 ± 0.35 |
| ATTTTTATTTTTTTTGTGCACATTTTCATTTTCTAT [GTGCAC_site9580] | 9.23 ± 0.34 |
| TTATTAAAATATACATTTGAAAGTAATCTTATTTAA [XGTACX_negctrl_site431] | 7.76 ± 0.45 |
| TTTTTTCAATATTATATCCAAAAATATTTGTAAATA [TGCATGCA_negctrl_site596] | 7.99 ± 0.4 |
| ATAGTATATCAAAATTTGTAAATCATTCTCAATAAA [CACACA_negctrl_site430] | 8.12 ± 0.29 |
| AAAAAAAAAATTTTCGTGCACATAAGAAAATTTAAA [GTGCAC_site9788] | 8.78 ± 0.18 |
| CATACATACAAACACACACACATATAAATACATACA [CACACA_site4625] | 8.69 ± 0.47 |
| AAAAAAAAAAAAAAAACACACATATCTGTATTTATA [CACACA_site5760] | 8.54 ± 0.25 |
| ACATTGTTGGTGTTAGTGCATTGGTAAATATTATAT | 8.82 ± 0.31 |
| TATTTAAAGATATATACACACATTTGATATTATTAT [CACACA_site6509] | 8.28 ± 0.38 |
| CACACGTAAAAGTATAATATAAAAAAGGTATACACT [CACACA_negctrl_site127] | 8.66 ± 0.4 |
| ACCTACATACATATGTGTACTTATTTGTATTCACTG [XGTACX_site7124] | 8.9 ± 0.4 |
| TTTATAAACAAATGAACACACAAACATATTTATATA [CACACA_site7478] | 8.62 ± 0.38 |
| ATAATATATGAAAAAACGATTTTTTCATTTTAAATA [XGTACX_negctrl_site146] | 8.25 ± 0.34 |
| TTTTAGCTATTTTAATATAATGAAGCAAAAAATAAA [TGCATGCA_negctrl_site576] | 8.49 ± 0.25 |
| ATAATAAATTCTACGCGTACAAAACCATGAACATTA [XGTACX_site7505] | 8.7 ± 0.42 |
| CTTTCAAAATTATTTATAGTATCTCATATTTTAGTA [XGTACX_negctrl_site72] | 8.03 ± 0.55 |
| ACACATATGTATATATGTACTTATATATATATATAT [XGTACX_site8632] | 10 ± 0.62 |
